Results taken from the supplement of paper PMC12217912.
This is one part of the list. Sequences were assembled here from the parent chain. Values near 0.05 are background.

B1: TEV protease; numbered along this chain (parent)
chain: MGESLFKGPRDYNPISSSICHLTNESDGHTTSLYGIGFGPFIITNKHLFRRNNGTLVVQSLHGVFKVKDTTTLQQHLVDGRDMIIIRMPKDFPPFPQKLKFREPQREERICLVTTNFQTKSMSSMVSDTSCTFPSGDGIFWKHWIQTKDGQCGSPLVSTRDGFIVGIHSASNFTNTNNYFTSVPKNFMELLTNQEAQQWVSGWRLNADSVLWGGHKVFMVKPEEPFQPVKEATQL

Variants of: B1
Assay: raw area under fraction-flipped curve 0-4 h after induction (AUC4h, not background-subtracted), DNA-recorder readout of cleavage of the substrate (dimensionless); higher = more cleavage of the substrate by the protease variant
Conditions: temperature: 34 °C; time window: 0-4 h after rhamnose induction
Description: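 In vivo DNA recorder in E. coli TOP10(DE3) ΔrhaA at 34 °C. Each TEVp single-site mutant (parent TEVp 0) is paired with a single-site variant of the 7-mer TEVs (canonical ENLYFQ|S). The substrate sits between flexible linkers in a Bxb1-sfGFP-TEVs-SsrA fusion, so cleavage stabilises Bxb1 and speeds flipping of a recombination array, read by NGS. The value is the raw area under the fraction-flipped curve over 0-4 h after rhamnose induction (AUC4h), with ≥20 reads per time point. It is not background-subtracted; inactive controls average about 0.047.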
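Note: Bxb1 expression induced with 0.2% (w/v) L-rhamnose at OD600 near 0.5, cultures sampled hourly, flipped fraction per protease–substrate barcode pair counted by paired-end Illumina sequencing.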

Variant	area with substrate EALYFQS	area with substrate ECLYFQS	area with substrate EDLYFQS	area with substrate EGLYFQS	area with substrate EILYFQS	area with substrate EKLYFQS	area with substrate ELLYFQS	area with substrate EMLYFQS	area with substrate EPLYFQS	area with substrate EQLYFQS	area with substrate ERLYFQS	area with substrate ETLYFQS	area with substrate EVLYFQS	area with substrate EYLYFQS	area with substrate EELYFQS	area with substrate EFLYFQS	area with substrate ESLYFQS	area with substrate EWLYFQS	area with substrate EHLYFQS
MGESLFKGPRDYNPISSSICHLTNESDGHTTSLYGIGFGPFIITNKHLFRRNNGTLVVQSLHGVFKVKDTTTLQQHLVDGRDMIIIRMPKDFPPFPQKLKFREPQREERICLVTTNFQTKSMSSMVSDTSCTFPSGDGIFWFHWIQTKDGQCGSPLVSTRDGFIVGIHSASNFTNTNNYFTSVPKNFMELLTNQEAQQWVSGWRLNADSVLWGGHKVFMVKPEEPFQPVKEATQL [K142F]	0.0975	0.0678	0.139	0.109	0.0875	0.099	0.082	0.0791	0.112	0.0909	0.0879	0.0806	0.077	0.0867	–	–	–	–	–
MGESLFKGPRDYNPISSSICHLTNESDGHTTSLYGIGFGPFIITNKHLFRRNNGTLVVQSLHGVFKVKDTTTLQQHLVDGRDMIIIRMPKDFPPFPQKLKFREPQREERICLVTTNFQTKSMSSMVSDTSCTFPSGDGIFWKHWIQTKDGQCGSPLVSTRDGFIVGIHSASNFTNTNNYFLSVPKNFMELLTNQEAQQWVSGWRLNADSVLWGGHKVFMVKPEEPFQPVKEATQL [T181L]	0.0694	–	0.0629	0.0792	–	–	–	0.0606	–	0.0511	0.0736	–	–	–	0.0607	0.0378	0.066	0.0616	–
MGESLFKGPRDYNPISSSICHLTNESDGHTTSLYGIGFGPFIITNKHLFRRNNGTLVVQSLHGVFKVKDTTTLQQHLVDGRDMIIIRMPKDFPPFPQKLKFREPQREERICLVTTNFQTKSMSSMVSDTSCTFPSGDGIFMKHWIQTKDGQCGSPLVSTRDGFIVGIHSASNFTNTNNYFTSVPKNFMELLTNQEAQQWVSGWRLNADSVLWGGHKVFMVKPEEPFQPVKEATQL [W141M]	0.0859	0.0618	0.117	0.0595	0.058	0.0548	0.0664	0.0756	0.0586	0.0727	–	0.0771	0.0639	–	0.0698	–	0.0654	–	0.0689
MGESLFKGPRDYNPISSSICHLTNESDGHTTSLYGIGFGPFIIDNKHLFRRNNGTLVVQSLHGVFKVKDTTTLQQHLVDGRDMIIIRMPKDFPPFPQKLKFREPQREERICLVTTNFQTKSMSSMVSDTSCTFPSGDGIFWKHWIQTKDGQCGSPLVSTRDGFIVGIHSASNFTNTNNYFTSVPKNFMELLTNQEAQQWVSGWRLNADSVLWGGHKVFMVKPEEPFQPVKEATQL [T44D]	0.0292	0.0463	–	0.0435	0.0441	0.0485	–	0.0364	0.0414	0.0423	0.0559	0.0463	0.0494	–	0.0472	0.049	0.0426	0.0423	0.0465
MGESLFKGPGDYNPISSSICHLTNESDGHTTSLYGIGFGPFIITNKHLFRRNNGTLVVQSLHGVFKVKDTTTLQQHLVDGRDMIIIRMPKDFPPFPQKLKFREPQREERICLVTTNFQTKSMSSMVSDTSCTFPSGDGIFWKHWIQTKDGQCGSPLVSTRDGFIVGIHSASNFTNTNNYFTSVPKNFMELLTNQEAQQWVSGWRLNADSVLWGGHKVFMVKPEEPFQPVKEATQL [R10G]	0.121	0.0884	0.113	0.0441	0.089	0.11	–	0.115	0.112	0.115	0.0784	–	0.104	0.0921	0.118	–	0.108	–	0.0737
